Results taken from PubChem BioAssay AID1832 (Broad Institute, 2009).
The campaign covered roughly 300,000 compounds. About 1,100 (0.37%) were called active. This list was built around the results that the source calls inconclusive (neither active nor inactive); the mix of calls is not that of the screen.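 The calls were made as follows: active = inhibition past about -25% in most replicates, and total fluorescence under double the plate's negative control median (limit read from the data); inconclusive = replicates evenly split on the limit, or fluorescence at least double controls; inactive = too little inhibition in most replicates.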

The compounds below were run against Zinc finger protein mex-5 (Caenorhabditis elegans) (UniProt Q9XUB2) (assay: MEX-5 zinc finger RNA-binding disruptors – biochemical, C. elegans, fluorescence polarization, MLPCN library, primary screen (AID 1832;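 also: 0% = DMSO and -100% = 5 µM competing unlabeled TCR2 RNA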)). Settings: MEX-5/FITC-TCR2 RNA binding, at 10 µM, hits give low values.
UniProt Q9XUB2, sequence (Q9XUB2 whole entry, looked up): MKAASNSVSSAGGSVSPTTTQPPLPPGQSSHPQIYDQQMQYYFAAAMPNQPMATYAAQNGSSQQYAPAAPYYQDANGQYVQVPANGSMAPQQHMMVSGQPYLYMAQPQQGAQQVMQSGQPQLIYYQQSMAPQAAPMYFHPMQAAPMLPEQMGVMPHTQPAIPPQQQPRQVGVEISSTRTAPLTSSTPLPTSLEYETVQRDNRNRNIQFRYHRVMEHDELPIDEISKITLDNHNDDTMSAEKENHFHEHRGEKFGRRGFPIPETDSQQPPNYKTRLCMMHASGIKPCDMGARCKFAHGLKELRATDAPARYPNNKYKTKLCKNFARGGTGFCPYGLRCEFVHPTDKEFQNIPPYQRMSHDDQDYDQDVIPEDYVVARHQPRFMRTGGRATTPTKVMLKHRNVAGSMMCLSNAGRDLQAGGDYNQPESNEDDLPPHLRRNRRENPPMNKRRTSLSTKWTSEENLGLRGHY

Structure (SMILES)	activity score (negative = inhibition of binding)
CCn1c(SCc2nc3sc(C(=O)O)c(C)c3c(=O)[nH]2)nc2ccccc21	active: -42.7%
CCOCCCn1c(=NC(=O)c2cccs2)c(C#N)cc2c(=O)n3ccccc3nc21	inconclusive: 26%
CCOc1ccc(C2CC(c3c(O)c4ccccc4oc3=O)=NN2c2ccccc2)cc1OC (centres undefined)	inconclusive: -81.1% [fluorescent]
COc1ccccc1NS(=O)(=O)c1cccc(C(=O)NN=C2CCCC2)c1	inactive: -3.2%
CCCCN1C(=O)/C(=C/C=C2/CC(C)(C)CN2C)SC1=S	inconclusive: 55.5% [fluorescent]
CC(Oc1cccc(Cl)c1)C(=O)Nc1cc(Cl)ccc1N1CCOCC1 (centres undefined)	inactive: -0.963%
COc1cccc(/C=N/Nc2ncnc(N)c2[N+](=O)[O-])c1OC	inconclusive: -23%
C=Cc1c(C)c2cc3[nH]c(cc4nc(cc5nc(cc1[nH]2)C(C)=C5CCC(=O)O)C(CCC(=O)O)=C4C)c(C)c3C=C	active: -41.8%
COc1ccc(/C=C2\SC(=S)N(CCCC(=O)Nc3cc(C)on3)C2=O)cc1OC	inconclusive: -17.6% [fluorescent]
COc1ccc(NC(=O)/C=C/c2cccc(Br)c2)cn1	active: -33.4%
CC(=O)OC1=C(O)C(=O)c2ccccc2C1=O	inconclusive: -23.7%
CCCCc1ccc(NC(=O)CSC2=NN3CCCC(=O)N=C3S2)cc1	inconclusive: -17.9%
CC(=O)N1CCc2c(sc(NC(=O)C3CCCCC3)c2C(N)=O)C1	active: -27.2%
O=C(NCc1ccncc1)C(=O)N/N=C/c1ccccn1	inconclusive: -23.8%
COC(=O)C1=C(C(=O)OC)[C@@H]2Nc3ccccc3[C@@]23C[C@@H](C(=O)OC)N=C3N1	inactive: -1.11%
CCCCN1/C(=C/c2ccc3ccccc3[n+]2CC)Sc2ccccc21	inconclusive: 50.7% [fluorescent]
CCN(CC(=O)NCc1ccc(Cl)cc1)C(=O)CCc1ccccc1	inactive: 1.19%
COc1ccc(-n2nc(C(=O)c3cccs3)cc(-c3nc4ccccc4[nH]3)c2=N)cc1	inconclusive: -24.3%
Cc1cc(-c2ccccc2)nc(N/N=C/c2ccc(O)cc2O)n1	inconclusive: -13.8%
Cc1ccccc1-n1c(=O)cc(N2CCC3(CC2)OCCO3)[nH]c1=O	inactive: -1.07%
O=C(O)CCN1C(=O)/C(=C/c2ccc(-c3nc4ccccc4s3)o2)SC1=S	inconclusive: -23.9%
O=C(O)c1ccc(N/N=C/C2=C(N3CCOCC3)C(=C\c3ccccc3)/CC2)cc1	inconclusive: -21.1%
O=C(Nc1ccccc1C(=O)NC(Cc1ccccc1)C(=O)NC1CCCCC1)c1ccccc1 (centres undefined)	inactive: 0.309%
CN(C)c1ccc(C(c2nnnn2CCOC(=O)Nc2ccc(Cl)cc2)N2CCOCC2)cc1 (centres undefined)	inconclusive: -24.4%
COc1ccc(N=Cc2c(O)n(-c3cccc(C)n3)c(=O)c3ccccc23)cc1	inconclusive: -23.5%
O=C(/C=C/c1ccc([N+](=O)[O-])s1)N1CCCC1	inconclusive: -17.9%
CC(=O)c1c(O)cc(O)cc1CC(=O)O	active: -28.8%

Structure (SMILES)	activity score (negative = inhibition of binding)
Cc1ccc(-c2nc3sc(C#N)c(N)n3c(=O)c2C#N)cc1	inconclusive: 0.677% [fluorescent]
Cc1ccc(S(=O)(=O)/N=C2\C=C(Nc3cccc(C(=O)O)c3)C(=O)c3ccccc32)c(C)c1	inconclusive: -21.7%
O=C(/C=C/c1ccc(OCCCF)cc1)Nc1ccnc(-c2cccnc2)n1	active: -51.3%
O=C(O)C(=O)/C(=C\c1cccc2ccccc12)c1ccc2ccccc2n1	active: -39.7%
CCCCCn1c(=N)c(S(=O)(=O)c2ccc(Cl)cc2)cc2c(=O)n3cccc(C)c3nc21	inactive: -2.14%
CC(C(=O)Nc1ccc(S(=O)(=O)N2CCCC2)cc1)N1CCN(C(=O)c2ccco2)CC1 (centres undefined)	inactive: 3.8%
O=C(OCC(=O)c1ccco1)c1ccc2ncsc2c1	inconclusive: -23.1%
Nc1c(C(=O)c2ccc(Cl)cc2)sc2nsc(SCCN3CCOCC3)c12	inconclusive: -24.8%
NC(=O)c1cc2ccc(O)cc2oc1=NCc1ccccc1	inconclusive: -137% [fluorescent]
Nc1nnc(CC(=O)N/N=C/c2cc([N+](=O)[O-])cc(Br)c2O)s1	inconclusive: -21.3%
CCOC(=O)C(=O)NC(C)c1ccccc1 (centres undefined)	inconclusive: -83.6% [fluorescent]
CC(C)c1nnc(NC(=O)CCS(=O)(=O)c2ccccc2)s1	inactive: -2.64%
CCOc1ccc(S(=O)(=O)Nc2cc(SCC(=O)O)c(O)c3ccccc23)cc1	active: -50.9%
CSc1c(C#N)c(N)nc2sc(C(=O)c3ccc(Cl)c(Cl)c3)c(N)c12	inconclusive: -104% [fluorescent]
CCN(CC)C(=O)Cn1c(=O)oc2ccccc21	inactive: 1.13%
Cc1cc(-c2csc(N)n2)c(C)n1C	active: -47.1%
O=C(Nc1cccc(-c2ccc(N3CCOCC3)nn2)c1)c1ccccc1	inactive: -3.43%
CCC1C(=O)C(C)(C)C(=O)OC1c1ccc([N+](=O)[O-])cc1 (centres undefined)	inactive: -0.339%
COc1ncnc2c1N=C1CC(C)(C)CC(N)=C1S2	active: -36.1%
Nc1nnc2c(n1)CCCC2	active: -32.5%
CCOC(=O)/C(C#N)=C(C)/C=C1\Sc2ccccc2N1CC	inconclusive: -34.3% [fluorescent]
Cc1cc(NC(=O)/C(C#N)=C/c2ccc(-c3ccc(SC(F)F)cc3)o2)n(-c2ccccc2)n1	inconclusive: -12%
CN1C(=O)N(C)C2(c3ccccc3)Nn3c(s/c(=C/c4ccccc4F)c3=O)=NC12c1ccccc1 (centres undefined)	inactive: -2.44%
CSc1cccc(NC(=O)c2[nH]c(C)c(C(C)=O)c2C)c1	inactive: 3.99%
CN1C=C/C(=C\c2cc[n+](C)c3ccccc23)c2ccccc21	active: -66.9%
CC(=O)N(C(C)=O)N1C(=O)c2cccc3c(N4CCOCC4)ccc(c23)C1=O	inconclusive: -46.8% [fluorescent]
COC(=O)N/N=C1/C/C(=N\NC(=O)OC)c2ccccc21	inactive: 2.93%
